Results on 102 compounds are retold here after paper PMC6919601, “Identification of Plasmodium dipeptidyl aminopeptidase allosteric inhibitors by high throughput screening” (PLoS ONE, 2019).

The whole screen tested about 110,000 compounds, of which about 230 (0.21%) showed an effect of 50% or more. This is one part of the list.
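Note: 30 min substrate incubation versus DMSO and 10 µM JCP410 controls.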

Sequence of DPAP1 (Q8IIJ9 whole entry, looked up): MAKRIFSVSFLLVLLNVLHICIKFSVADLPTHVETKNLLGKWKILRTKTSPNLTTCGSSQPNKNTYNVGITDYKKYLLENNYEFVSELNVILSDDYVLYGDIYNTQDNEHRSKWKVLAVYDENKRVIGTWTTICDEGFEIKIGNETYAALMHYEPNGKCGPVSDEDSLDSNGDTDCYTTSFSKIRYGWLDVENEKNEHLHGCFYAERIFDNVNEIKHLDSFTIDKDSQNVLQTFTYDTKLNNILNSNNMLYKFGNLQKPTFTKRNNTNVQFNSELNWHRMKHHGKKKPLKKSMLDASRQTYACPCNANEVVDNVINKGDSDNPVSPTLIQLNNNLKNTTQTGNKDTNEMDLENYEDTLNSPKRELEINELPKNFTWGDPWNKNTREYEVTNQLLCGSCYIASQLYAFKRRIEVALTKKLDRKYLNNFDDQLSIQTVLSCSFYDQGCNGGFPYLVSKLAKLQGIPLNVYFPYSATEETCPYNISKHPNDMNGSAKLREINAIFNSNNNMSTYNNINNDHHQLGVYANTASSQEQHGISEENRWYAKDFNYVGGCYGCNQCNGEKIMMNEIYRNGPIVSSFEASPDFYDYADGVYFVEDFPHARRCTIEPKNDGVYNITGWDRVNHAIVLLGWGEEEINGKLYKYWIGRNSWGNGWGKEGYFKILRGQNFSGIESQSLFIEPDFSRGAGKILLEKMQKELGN

This experiment has as its target DPAP1 (Plasmodium falciparum, UniProt Q8IIJ9). As to the kind of experiment: primary screen, percent inhibition; read by cleavage of a fluorogenic dipeptide substrate; higher = more effect of the substance. Further details: species or system P. falciparum D10 trophozoite lysates; single well.
Take `Cc1ccc(-n2nc3ccc(NC(=O)c4ccco4)cc3n2)cc1C`: the “% Inhibition @ 10 uM” value amounted to 1.67%. Turning to `COc1ccc(-c2nn(C)c(=O)c3ccccc23)cc1CNC(=O)NC1CCCCC1`, the “% Inhibition @ 10 uM” value came out at 3.72%.

`CC(=O)Nc1ccc(NC(=O)COc2cc(C)ccc2C)cc1`: the “% Inhibition @ 10 uM” value was -1.84%. As for `Cc1ccc(-c2nc(CSCC(=O)NCCN3CCN(Cc4ccccc4)CC3)c(C)o2)cc1`, the figure is -4.71%; as for `CCc1ccc(-n2nc(C)c3c(C)cc(=O)oc32)cc1`, 4.65%. `O=C(CN1CCc2ccccc2C1)N1CCCc2c1c(=O)oc1ccc(OCc3ccccc3)cc21`: the “% Inhibition @ 10 uM” value is reported as -3.74%. On to `CCN1CCCC1CNC(=O)c1sc2nc3n(c(=O)c2c1C)CCCCC3` (stereo not drawn), for which the “% Inhibition @ 10 uM” value was 0.658%. `CCOc1ccccc1C(=O)Nc1cccc(C)c1C`: the “% Inhibition @ 10 uM” value is given as -1.61%. `CCc1ccc(Oc2nc3ccccn3c(=O)c2/C=C(\C#N)C(=O)NC2CCCCC2)cc1`: the “% Inhibition @ 10 uM” value came out at 4.99%. With `COc1cc(C2c3c(-c4ccccc4O)n[nH]c3C(=O)N2CCCO)cc(Br)c1O` (stereo not drawn), the “% Inhibition @ 10 uM” value turned out to be 0.366%. As for `CC(C(=O)O)N(C(=O)c1ccccc1)c1ccc(Cl)c(Cl)c1` (stereo not drawn), the figure is 3.98%. The result for `C/C(=C\c1cccc2ccccc12)C(=O)c1c(C)cc(C)nc1O` reads -1.5%; that for `c1ccc2nc3c(nc2c1)sc1nc2ccccc2n13`, 1.49%. The result for `CCOC(=O)c1c(C)oc2cc(Br)c(O)c(C=O)c12` reads 1.39%; that for `Cc1sc(NC(=O)c2ccco2)c(C(c2ccccn2)N2CCN(C)CC2)c1C` (stereo not drawn), 6.94%. For `CC1CCC(N2CC(C)OC(C)C2)C1` (stereo not drawn), the “% Inhibition @ 10 uM” value is reported as 1.9%. In the case of `O=C(NC12CC3CC(CC(C3)C1)C2)c1cncc(Br)c1`, the “% Inhibition @ 10 uM” value came to 3.9%. As to `COC(=O)c1c(NC(=O)c2nc(SC(C)C)ncc2Cl)sc2c1CCCC2`, the “% Inhibition @ 10 uM” value was 0.758%. Regarding `COc1ccc(NC(=O)C23CC4CC(C2)CC(n2cnc(Br)n2)(C4)C3)cc1OC`, the “% Inhibition @ 10 uM” value is given as -11.9%. As to `COc1ccc2nc(N3CCCC(C(=O)NC4CCCCCCC4)C3)sc2c1` (stereo not drawn), the “% Inhibition @ 10 uM” value was found to be 1.83%. With `NS(=O)(=O)c1ccc(NS(=O)(=O)c2ccc(NC(=O)c3ccccc3)cc2)cc1`, the “% Inhibition @ 10 uM” value worked out at 5.03%. `O=C(O)c1cc(-c2ccc(/C=C3/NC(=O)N(Cc4ccc(Cl)cc4)C3=O)o2)ccc1Cl`: the “% Inhibition @ 10 uM” value is recorded as -3.06%.

Consider `COc1ccc(Br)cc1/C=C1\N=C(c2ccc(Br)o2)OC1=O`, for which the “% Inhibition @ 10 uM” value is -2.23%.

For `COc1cc(C2=N/C(=C\c3cccc(Cl)c3Cl)C(=O)O2)cc(OC)c1OC`, the “% Inhibition @ 10 uM” value was -7.76%. For the compound `CC(C)Cn1c2c(c(=N)c3c1CCC3)CCCC2`, the “% Inhibition @ 10 uM” value was -2.65%. As for `Cc1cc(C)cc(Oc2nc3ccccn3c(=O)c2/C=C(\C#N)C(=O)NCC2CCCO2)c1` (stereo not drawn), the figure is -5.1%; as for `COc1ccc(N2CCN(CC(O)COc3ccccc3C)CC2)cc1` (stereo not drawn), -1.22%.

`Cc1sc2ncn(CC(=O)NCc3ccccc3)c(=O)c2c1-c1ccc(Br)cc1`: the “% Inhibition @ 10 uM” value is recorded as -3.41%. The result for `Cn1cc(Cl)c(C(=O)NCC(=O)c2ccccc2)n1` reads -3.13%; that for `CC1CCN(C(=O)CSc2nc3c(c(=O)n2CCc2ccccc2)SCC3)CC1`, -8.38%. The result for `COc1ccc(CNC2CCCCC2C)cc1C` (stereo not drawn) reads -6.08%. The result for `C=CCSc1ncc(Cl)c(C(=O)Nc2nnc(CC)s2)n1` reads -2.71%; that for `CC(=O)Nc1ccc(-c2nc3ccccc3o2)cc1`, -7.6%.

As for `Fc1ccccc1C1Nc2ccccc2C2C=CCC21` (stereo not drawn), the “% Inhibition @ 10 uM” value was 2.08%. The result for `Cc1ccc(C2=NS(=O)(=O)N(C)C(C(=O)NC(C)c3ccccc3)=C2)cc1` (stereo not drawn) reads 0.655%.

`O=S(=O)(c1ccccc1)c1nnn2c1nc(Cl)c1ccccc12`: the “% Inhibition @ 10 uM” value was -0.58%. With `Cc1ccc(-c2nnc3n(CC(C)C)c(=O)c4ccccc4n23)s1`, the “% Inhibition @ 10 uM” value is -1.72%.

On to `CCOc1cc(CN2CCN(c3ccc(C(C)=O)cc3)CC2)ccc1O`, for which the “% Inhibition @ 10 uM” value amounted to 3.83%. For the compound `Cc1cccc(CN2CCCC(O)C2)c1` (stereo not drawn), the “% Inhibition @ 10 uM” value is listed as -0.828%. As for `COC(=O)C1CC2CC(CC(C(=O)OC)C23SCCS3)C1=O` (stereo not drawn), the “% Inhibition @ 10 uM” value was -1.29%. Take `CCOC(=O)c1[nH]c2ccccc2c1NC(=O)/C=C/c1cc(OC)c(OC)c(OC)c1`: the “% Inhibition @ 10 uM” value is reported as -5%. As for `Cc1ccc(CCNc2nc3ccccc3n3c(C)nnc23)cc1`, the figure is -1.08%.

For `O=C(CCn1cnc2onc(-c3ccc(F)cc3)c2c1=O)NCCN1CCOCC1`, the “% Inhibition @ 10 uM” value is on record as 7.43%. The result for `CC1(C)Cc2c(ccc3ccccc23)C(CCN2CCCCC2)=N1` reads 2.22%. With `CC1(C)Cc2ccccc2-c2nnc(-c3ccccc3Cl)n21`, the “% Inhibition @ 10 uM” value is reported as -3.44%. As for `O=C(CSc1nnc(-c2ccco2)o1)NC1CCCCC1`, the figure is 1.86%; as for `O=c1c2ccccc2n2c(-c3cccs3)nnc2n1Cc1ccc(F)cc1`, 3.3%. The result for `CCOc1ccc2ncc(S(=O)(=O)c3ccccc3)c(NCc3ccccc3)c2c1` reads -10.4%. The result for `Cc1ccc(C(=O)Nc2ccon2)cc1S(=O)(=O)N1CCOCC1` reads -3.53%. As for `COc1ccc(Br)cc1CN1CCCC(C)C1` (stereo not drawn), the “% Inhibition @ 10 uM” value worked out at 3.68%. Turning to `Cc1nnc2sc(-c3ccc(C(C)(C)C)cc3)nn12`, the “% Inhibition @ 10 uM” value was found to be 2.29%.

Consider `COc1cc(Cc2nn[nH]n2)cc(OC)c1OC`, for which the “% Inhibition @ 10 uM” value is listed as 2%.

With `COc1ccc(N2C(=O)C(Cl)=C(Nc3ccc(C)cc3C)C2=O)cc1`, the “% Inhibition @ 10 uM” value is on record as 0.658%. For the compound `CCOCCCNC(=O)C1CCC(CNS(=O)(=O)c2ccccc2)CC1` (stereo not drawn), the “% Inhibition @ 10 uM” value turned out to be 0.718%. Regarding `COc1ccc2c(c1OC)C(=O)N1c3ccccc3N=C(c3ccc(F)cc3)CC21` (stereo not drawn), the “% Inhibition @ 10 uM” value was -3.19%. As for `CC(C)(CO)NCc1cc(Br)ccc1OCc1ccccc1`, the figure is -3.67%. As for `Cc1cccc(C)c1-n1c(C)cc(/C=C2\NC(=O)NC2=O)c1C`, the figure is 4.83%; as for `O=C(O)c1cc2cccc3c2n1CCS3`, -3.53%; as for `O=C(CN1C(=O)c2cccc3cccc1c23)NCCc1ccccc1`, -1.28%. The result for `COc1ccc(N2CCN(CC3=CC[C@H]4C[C@@H]3C4(C)C)CC2)cc1` reads 1.9%. As to `CCn1cc(C(=O)Nc2cnn(Cc3ccc(Cl)c(Cl)c3)c2)cn1`, the “% Inhibition @ 10 uM” value was 1.88%.

For the compound `CC(C)NC(=O)CN(c1ccccc1F)S(=O)(=O)c1ccccc1`, the “% Inhibition @ 10 uM” value is 3.66%.

As to `Cc1nnc(N2CCCC(C(=O)NCCCN3CCCC3=O)C2)c2nn(-c3ccccc3)c(C)c12` (stereo not drawn), the “% Inhibition @ 10 uM” value is 2.75%.

`O=C(c1ccccc1)c1ccc2nc(O)c(O)nc2c1`: the “% Inhibition @ 10 uM” value is listed as -0.414%. For `COc1ccc(OC)c2sc(N(CCN(C)C)C(=O)c3cccc(C(F)(F)F)c3)nc12`, the “% Inhibition @ 10 uM” value is listed as -9.64%. `CCOc1ccc(NS(=O)(=O)c2ccc(Cl)cc2)cc1`: the “% Inhibition @ 10 uM” value was -3.71%. For `COC(=O)C1=C(C)NC(=O)NC1c1ccccc1OC(C)C` (stereo not drawn), the “% Inhibition @ 10 uM” value was -1.03%. The result for `COc1ccc(C(=O)Nc2ccccc2)cc1NC(=O)COc1cccc(C)c1` reads -3.37%; that for `COc1ccc(C(=O)Nc2nc3nc(C)cc(O)n3n2)cc1OC`, -3.08%; that for `CCCC(=O)NC1=C(C#N)C2(CCCC2)Cc2ccccc21`, 2.31%. With `CN(Cc1ccccc1)c1ccn(-c2nc(-c3ccccc3)oc2-c2ccccc2)c(=O)n1`, the “% Inhibition @ 10 uM” value turned out to be 4.35%. The result for `CC1=C(C(=O)Nc2ccccc2)C(c2cccs2)N2C(=O)CSC2=N1` (stereo not drawn) reads -0.105%; that for `CCOc1ccccc1/C=C1\N=C(c2ccc(OC)cc2)OC1=O`, -1.12%; that for `CC(=O)c1cccc(NC(=O)COc2ccc(C3CCCCC3)cc2)c1`, 9.36%. Take `Cc1cc2ncn(C(=O)N3CCOCC3)c2cc1C`: the “% Inhibition @ 10 uM” value turned out to be 2.38%. Consider `C/C(=N\CCc1ccc(F)cc1)C1=C(O)c2ccccc2C1=O`, for which the “% Inhibition @ 10 uM” value is reported as -1.18%. As for `O=C1/C(=C/c2cc(Br)cs2)Cc2ccccc21`, the figure is 2.59%. Take `CN(C)C(=O)/C(=C\c1ccc(-c2ccc(Cl)cc2)o1)NC(=O)c1ccccc1`: the “% Inhibition @ 10 uM” value is -0.988%. As for `CCOC(=O)C1=C(CN2CCc3ccccc3C2)NC(=O)NC1c1ccc(OC(C)C)cc1` (stereo not drawn), the figure is -2.83%; as for `CCOc1ccc(OCc2ccc(C(=O)Nc3cccc(C)n3)o2)cc1`, -6.7%. As for `CCCOc1ccc(C2(C(=O)O)CCCC2)cc1`, the figure is 0.685%; as for `COc1cc(Br)cc2cc(S(=O)(=O)c3ccc(F)c(C)c3)c(=O)oc12`, 2.12%; as for `CCn1c(CCNC(=O)c2cccc(C)c2)nc2ccccc21`, 7.25%. The result for `COc1ccc(-c2c(C)c(C)nc(N)c2C#N)cc1` reads 0.51%; that for `NC(=O)C1CCCN(Cc2cccc(F)c2)C1` (stereo not drawn), -0.292%. In the case of `O=C(NCc1ccco1)Nc1ccc(Cl)c(Cl)c1`, the “% Inhibition @ 10 uM” value is 2.94%. As for `CC1CCCN(C(=O)C2CCCN(c3ncnc4onc(-c5ccc(F)cc5)c34)C2)C1` (stereo not drawn), the figure is 4.27%. As for `C#CCn1c(CCC)nc2ccccc21`, the figure is 1.12%.

Turning to `O=C1C2CC=CCC2C(=O)N1c1cc(Cl)ccc1O` (stereo not drawn), the “% Inhibition @ 10 uM” value is listed as -1.07%. For the compound `COc1ccc(CNC(=O)c2sc3nc4c(c(C(F)(F)F)c3c2N)CCC4)cc1`, the “% Inhibition @ 10 uM” value is on record as 1.95%. As for `O=C(Nc1nc2c(s1)CCCC2)c1ccc2c(c1)CC(c1ccccc1)OC2=O` (stereo not drawn), the figure is -1.15%; as for `Cc1ccc(SCCC(=O)N2CCCCC2)cc1`, -11.6%.

On to `O=C(/C=C/c1ccccc1)Nc1ncc(Cc2ccccc2Cl)s1`, for which the “% Inhibition @ 10 uM” value came out at 10.7%. Consider `COc1ccc(OC)c(C(=O)c2ccc(C(=O)NC3CCCCC3)cc2)c1`, for which the “% Inhibition @ 10 uM” value worked out at 4.57%. As for `Nc1c(N2CCCCCC2)cnn(-c2ccccc2)c1=O`, the “% Inhibition @ 10 uM” value was determined as 2.65%. For the compound `C=CCn1c(SCC(=O)N2CCC(C)CC2)nc2sc3c(c2c1=O)CCCC3`, the “% Inhibition @ 10 uM” value is on record as -3.41%.

In the case of `COc1ccc(NC(=O)COc2ccc(Br)c(C)c2)cc1`, the “% Inhibition @ 10 uM” value is recorded as -3.23%. As for `COc1ccccc1CNC(=O)CCCc1nnc2n3nc(C)nc3c3ccccc3n12`, the figure is 0.44%; as for `COc1cc2c(cc1OC)CN(C(=O)CSc1ccc3ccccc3n1)CC2`, -5.79%. The result for `CCN1CCN(c2ccc3nsnc3c2[N+](=O)[O-])CC1` reads -1.69%; that for `COCc1cc(C)nc(SCC(=O)Nc2nc(-c3ccccc3)c(C)s2)c1C#N`, 6.69%. The result for `COc1cc(OC)c(C2N(c3cc(C)on3)C(=O)C3CCCN32)cc1OC` (stereo not drawn) reads -0.499%.
